{
  "source": "PubChem BioAssay (NCATS)",
  "note": "Inconclusive results, whose numbers are uncertain, are shown with a selection of clear calls. Potencies of inconclusive entries are doubtful fits and often do not repeat. Activity calls are given as the source filed them. The call rests on the fitted dose curve; in most records, active means well fitted curve in the direction sought with a large enough effect; inconclusive means small, poorly fitted or top-dose-only effect, or another doubt; inactive means no such curve, though single readings can be large; an effect the other way counts as inactive or inconclusive. Further: nearly all actives have a fitted effect of over 70% in size. On the % scale 0 is the no-effect control and ±100 the full control effect; potency means the concentration at half of the fitted maximal effect; tags describe the fitted curve by direction and shape.",
  "data": [
    {"experiment": "Primary qHTS for inhibitors of nuclear receptor binding SET domain protein 2 (NSD2) in an isogenic RCH-ACV NSD2 p.E1099K mutant (9B) (AID 1645876)", "settings": "RCH-ACV NSD2 E1099K (9B) viability, CellTiter-Glo, 72 h; series mostly up to 44.9 µM; activity change, negative = viability loss: at the top concentration", "values": [
      {"smiles": "C=C[C@H]1CN2CC[C@H]1C[C@@H]2[C@@H](O)c1ccnc2ccccc12", "activity change, negative = viability loss": "inactive: -15.7%"},
      {"smiles": "Oc1ccc2c3c1O[C@H]1[C@H](N(CCCl)CCCl)CC[C@@]4(O)[C@@H](C2)N(CC2CC2)CC[C@]314", "activity change, negative = viability loss": "inactive: -5.8% [at 9.23 µM]"},
      {"smiles": "O=C(CCCN1CCC(n2c(=O)[nH]c3ccccc32)CC1)c1ccc(F)cc1", "Potency": "inconclusive: 29.9 µM [inhibitor, single point]"},
      {"smiles": "Clc1cccc(SC2CCNCC2)n1", "activity change, negative = viability loss": "inactive: 0.983%"},
      {"smiles": "COC1CC(O[C@H]2CC[C@@]3(C)C(CCC4C3CC[C@]3(C)C(C5=CC(=O)OC5)CCC43O)C2)OC(C)C1OC1OC(COC2OC(CO)C(O)C(O)C2O)C(O)C(O)C1O", "note": "(some centres not stated)", "Potency": "active: 0.975 µM"},
      {"smiles": "CC(C)(N)Cc1ccccc1Cl", "outcome": "inactive"},
      {"smiles": "NC1(c2ccccc2)CCCCC1", "Potency": "active: 17.1 µM"},
      {"smiles": "CCN(C(C)=O)c1cccc(-c2ccnc3c(C#N)cnn23)c1", "activity change, negative = viability loss": "inactive: -8.19%"},
      {"smiles": "CC/C=C/C=C/C1(C)OC(OC)=C(C(=O)C2C(C)C(=O)c3cc(OC)c(O)c(O)c3C2(C)O)C1=O", "note": "(configuration not stated)", "Potency": "inconclusive: 7.96 µM [inhibitor, single point]"},
      {"smiles": "COc1ccc(C(c2ccc(OC)cc2)C(Cl)(Cl)Cl)cc1", "Potency": "inconclusive: 42.8 µM [inhibitor, partial curve]"}
    ]},
    {"experiment": "Primary qHTS for inhibitors of nuclear receptor binding SET domain protein 2 (NSD2) in an RCH-ACV wild type WT cells (2C) (AID 1645877)", "settings": "RCH-ACV NSD2 WT (2C) viability, CellTiter-Glo, 72 h; series mostly up to 44.9 µM; activity change, negative = cell killing: at the top concentration", "values": [
      {"smiles": "Cc1nc2ccccc2c(=O)n1-c1ccccc1Cl", "Potency": "inconclusive: 23.8 µM [inhibitor, partial curve]"},
      {"smiles": "CCCC(C)C1(CC)C(=O)N=C(S)NC1=O", "note": "(configuration not stated)", "Potency": "inconclusive: 23.7 µM [inhibitor, single point]"},
      {"smiles": "CN(C(=O)C(c1ccccc1)c1ccccc1)[C@H](CN1CC[C@H](O)C1)c1ccccc1", "Potency": "inconclusive: 20.5 µM [inhibitor, single point]"},
      {"smiles": "CCCN(CCC)CCc1c[nH]c2ccccc12", "Potency": "inconclusive: 30.3 µM [inhibitor, partial curve]"},
      {"smiles": "COC1CC(=C(c2cccs2)c2cccs2)C[N+](C)(C)C1", "note": "(configuration not stated)", "Potency": "active: 15 µM"},
      {"smiles": "CC[N+]1(CCOC(=O)C(O)(c2ccccc2)c2ccccc2)CCCCC1", "activity change, negative = cell killing": "inactive: 1.09%"},
      {"smiles": "OCCCBr", "Potency": "inconclusive: 48.6 µM [inhibitor, single point]"},
      {"smiles": "C[C@H]1CN(Cc2ccc(CC(=O)N3CCC(Nc4cccc(F)c4)CC3)cc2)CCN1", "Potency": "inconclusive: 11.5 µM [inhibitor, partial curve]"},
      {"smiles": "Cc1ccc(N=CN(C)C=Nc2ccc(C)cc2C)c(C)c1", "activity change, negative = cell killing": "inactive: 8.39%"},
      {"smiles": "CC1=CC(=O)[C@@H](O)[C@]2(C)C3[C@@H](O)[C@@H]4OC(=O)[C@@H]([C@H]4C)[C@]3(C)C(=O)[C@H](O)[C@@H]12", "note": "(some centres not stated)", "Potency": "inconclusive: 20.1 µM [inhibitor, single point]"},
      {"smiles": "COP(=S)(OC)Oc1ccc(S(=O)(=O)N(C)C)cc1", "Potency": "inconclusive: 29.9 µM [inhibitor, single point]"},
      {"smiles": "CN1CCc2cc(Cl)c(O)cc2[C@H]2c3ccccc3CC[C@@H]21", "Potency": "inconclusive: 18.8 µM [inhibitor, single point]"},
      {"smiles": "Nc1ccc(Cl)cc1C(=O)c1ccccc1F", "Potency": "inconclusive: 33.5 µM [inhibitor, partial curve, poor fit]"},
      {"smiles": "CCN(CC)CCOC(=O)C(C)(c1ccccc1)c1ccccc1", "Potency": "inconclusive: 26.6 µM [inhibitor, single point]"},
      {"smiles": "COC1(C[S@@](=O)c2ccccc2)CCN(CCc2c[nH]c3ccc(F)cc23)CC1", "Potency": "inconclusive: 18.3 µM [inhibitor, partial curve]"},
      {"smiles": "CC(C)=CCOc1c2occc2cc2ccc(=O)oc12", "Potency": "inconclusive: 33.5 µM [inhibitor, single point]"},
      {"smiles": "CCC1NC(=O)C2C(Cl)C(Cl)CN2C(=O)C(CC)NC(=O)CC(c2ccccc2)NC(=O)C(CO)NC1=O", "note": "(configuration not stated)", "Potency": "inconclusive: 8.93 µM [inhibitor, single point]"},
      {"smiles": "CCCCC(CC)COC(=O)c1ccccc1C(=O)OCC(CC)CCCC", "note": "(configuration not stated)", "Potency": "inconclusive: 43.3 µM [inhibitor, single point]"},
      {"smiles": "C=C[C@H]1CN2CC[C@H]1C[C@@H]2[C@@H](O)c1ccnc2ccccc12", "activity change, negative = cell killing": "inactive: -27.6%"},
      {"smiles": "COC1CC(O[C@H]2CC[C@@]3(C)C(CCC4C3CC[C@]3(C)C(C5=CC(=O)OC5)CCC43O)C2)OC(C)C1OC1OC(COC2OC(CO)C(O)C(O)C2O)C(O)C(O)C1O", "note": "(some centres not stated)", "Potency": "active: 1.73 µM"},
      {"smiles": "CCN(C(C)=O)c1cccc(-c2ccnc3c(C#N)cnn23)c1", "Potency": "inconclusive: 29.9 µM [inhibitor, partial curve, poor fit]"},
      {"smiles": "COc1ccc(C(c2ccc(OC)cc2)C(Cl)(Cl)Cl)cc1", "Potency": "inconclusive: 48.1 µM [inhibitor, single point]"}
    ]}
  ]
}
